First the molecules themselves.
B1: LINE1-mini (parent)
chain: GGCAGAGCUCAACACAGCGUGGCAAAGUGGCUGUGGCUAGACUGCC

Read counts are not given, so values of variants with three or more changes are uncertain.

Variants of B1 are the subject of the data set. The experiment in a line: self-cleavage, relative activity (ratio to wild type); higher = more cleavage; in vitro, sequencing; the parent is a self-cleaving ribozyme.
On to GGCAGAGCCCAACACAGAGUGGCAAAUUGGCUGUGGCUAGACUGCC [U9C C18A G27U], for which the self-cleavage turned out to be 0.04. For GGCAGUAAUCAACACAGCGUGGCAAAGUGGCUGUGGCUAGACUGCC [A6U G7A C8A] the value was 0.45; for GGCAGAGAUCAGCAAAGCGUGGCAACGUUGCUGUGGCUAGGCUGCC [C8A A12G C15A A26C G29U A41G], 0.06; for UGCAGAGCUCAACAGAGUGUGGCAAAGUGGCUGUGGCUAGACCGCC [G1U C15G C18U U43C], 0. For GGCAGACCUCAACAAAUCGUGGCAAAGUGGCUGUGGCUAGACUGCC [G7C C15A G17U] the value was 0.01; for GGCAGAGCUGAACACAGCGUGACAAAGUGGCGGUGGCCAGACUGCC [C10G G22A U32G U38C], 0; for GGCUGAGUUCAAGACAGCGUGGCAAAGUGGCUGUGGCUAGACUGCC [A4U C8U C13G], 0.05. For GUCCGAGCUCAACAUAGCGUGGCAAAGUGGCUGUGGCUAGACUGCA [G2U A4C C15U C46A] the value was 0.01; for GGGAGUGCUCAACACAGCGUGGCAAAGUGGAUGUGGCUAGACUGCC [C3G A6U C31A], 0.12.

As for GGCAUAGCUCAACACAGCGUGGCAACGUGGCUGUGGCUAGACUGCA [G5U A26C C46A], the self-cleavage came to 0.03. For GGUGGAGUCCAACAAAGCGUGGUAUAGUGCCUGUAGCUAGACUGCC [C3U A4G C8U U9C C15A C23U A25U G30C G35A] the value was 0.86. The value for GGGGGAGCUCAACACAGCGUGGCAGAGUGGAUGUGGCUAGACUGCC [C3G A4G A25G C31A] was 0.03. The value for GGCAGAGCUUAACACAGCGUGGCAAAGUGGCUUUGACUAGACUGCC [C10U G33U G36A] was 0.04; that for GGCAGAGCUCAACACAGCGUGGCAAAGUGGUUGUGGGUAGACUGCA [C31U C37G C46A] was 0.01.

Consider GGCAGAGCUCAACACAGCGUGGCAAAAUGGCUGUUGCUAGACGGCU [G27A G35U U43G C46U], for which the self-cleavage came out at 0.

On to GGCAGAGCUCAACACAGCGUGGCAGAGUGGCUGUGGCUUGACUGCU [A25G A39U C46U], for which the self-cleavage stood at 1.23. The value for GGCAGAGCUCAACAAAGCGUGGCAAAGUGGCUGUGGCGAGCCGGCC [C15A U38G A41C U43G] was 0.03; that for GGCAGAGCUCAACAAAGCUUGGCAAAGUGGCUGUGGUUAGAUUGCC [C15A G19U C37U C42U] was 0.04.

For the variant AGCAUACCGCAACACGGUGUGGCAAAGUGGCUGUGGCUAGACUGCG [G1A G5U G7C U9G A16G C18U C46G], the self-cleavage was found to be 0.04.

With GGCAGAGCACAACACAGCGUCGCAAAGUGGCUGUGGAUCGACUGGC [U9A G21C C37A A39C C45G], the self-cleavage was found to be 0.04. Take GCCAGAGCUCAACACAGCGAGGCAAAGUCGCUGUGGCUAGACUGCC [G2C U20A G29C]: the self-cleavage worked out at 0.06. Consider GACAGAGUUCAACGCAGCGUGGCAAAGUGGCUGGGGCUAGACUGCC [G2A C8U A14G U34G], for which the self-cleavage is 0.05. The value for GGCAUAGCUCAACACUGCGUGGCAAAGUGGCUGUGGCUAGACUGUC [G5U A16U C45U] was 0.02. For UGCAGAGCUCAACACAGCGUGGCACAGUGGCUGUGGCUACACUGCC [G1U A25C G40C] the value was 0.07.

As to UGCAGAGCUCAACACAGCGUGGCAAAGUGGCGGUGGCUAGAUUGCC [G1U U32G C42U], the self-cleavage is 0.05. The value for GUCAGAGCUGAGCACAGCCUUGCAAAGUGGCUGUGGCUAGCCUACC [G2U C10G A12G G19C G21U A41C G44A] was 0; that for GGCAGCGCUCAACACAGCGAGGCAAAGUGGGUGUGGCUAGUCUGCG [A6C U20A C31G A41U C46G] was 0.04. Regarding GGAAUAGCUCAACACAGCGUGGCAAAGUCGCUGAGGCUAAACUGCC [C3A G5U G29C U34A G40A], the self-cleavage is 0.04. The value for GGGAGUGCUCAACACAGCGAGGCAAAGUAGCAGUGGCUAGACUGCU [C3G A6U U20A G29A U32A C46U] was 0.04; that for GGCAGAGCUCAACACAGCGUGGCAAAGUGGCUGUUCCUAGAGUGCC [G35U G36C C42G] was 0.05; that for GGAAGAGUUCAACACUGCGUGGCAAAGUGGCUGUGGAUAGACUGCC [C3A C8U A16U C37A] was 0.35.

Consider GGGAGAGCUCAACACAGUGUGGCAAAGUGGCUGUGACUAGACUGCC [C3G C18U G36A], for which the self-cleavage was 0.47. The value for UGCAGAGCUCAACACAGCGUGGCAAAGUGGGUGUGGCUAGAUCGCC [G1U C31G C42U U43C] was 0.04; that for GGCUGAGCUCAACACAGCGUGGCUAAAUGUCUGUGGCUAGACUGCC [A4U A24U G27A G30U] was 0.18; that for GGGAGAGCUCACCACAGCGUGGCAAAGUGGCUGUCGCUAGACUGCC [C3G A12C G35C] was 0.

For GGAAGAGUUCAACACAGCGUGGCAAAGUGGCUGUGGCCAGACUGCU [C3A C8U U38C C46U], the self-cleavage is 1.57. The value for GGCAGAGCUCAACACGGCGUGGCGAAGUGGCUGUGGAUAGACUGCC [A16G A24G C37A] was 0.05; that for GGCAGAGCUCAACACAGCAUGGCAAAGUAGUUGUGGCUAGACUGCC [G19A G29A C31U] was 0.49; that for GGCAGAGCUCAACACAGCGUGGGAAAGCUUCUGUGGCUAGACUGCC [C23G U28C G29U G30U] was 0.38. The value for UGCAGAGCUCAACACAGCGUGGCAAAGUGGCUGUGGCUAGACUACG [G1U G44A C46G] was 0.08; that for AGCAGAGCUCAACACAGCGUGGCUUAGUGGAUGUGGCUAGACUGCC [G1A A24U A25U C31A] was 0.1; that for GGCAGAGCUCAACACAGCGUUGUAAAGUGUCUGUGGCUAGUCUGCC [G21U C23U G30U A41U] was 0.4. The value for GGCGGAGCUUAACACAGCGUGGCAAAGUGGCUGUGGCUAGUCUGCC [A4G C10U A41U] was 0.05; that for GGCAGAGGUCAACACACCAUGGCAAAGUGGCUGUGGCUAGACUGCC [C8G G17C G19A] was 0.05; that for GGAAGUGCUAAACACAGCGUGGCAAAGUGGCUGUGGCUAGACUGCC [C3A A6U C10A] was 0.05. Turning to GGCAGUGCUGAACACGGCGUGGCAAAGUGGCUGUGGAUAAACUCCC [A6U C10G A16G C37A G40A G44C], the self-cleavage is 0.02. For CGCAGAGCUCAAAACAGCGUGGCAAAGUGGUUGUGGCUACACUGCC [G1C C13A C31U G40C] the value was 0.02; for GGCAGUGCCCAACACAGCGUGGCAAAGUCGCUAUGGCUAGACUGCC [A6U U9C G29C G33A], 0.04.

For GGCAGAGCUCAGACCAGCGUGGCAAAGCGGCUGUGGCUAGACUGCC [A12G C13A A14C U28C], the self-cleavage was found to be 0.01. The value for AACAGAGCUCAACACAAGGUGGCAAGGUGGCUGUGGCUAGACUGCC [G1A G2A G17A C18G A26G] was 0.73.

In the case of GGCAGAGCUCAACACAGCGUGGCAAAGUGUCUGUGGCUAGUCUGUC [G30U A41U C45U], the self-cleavage is 0.35. For GGCAGAGCUCAACACAGCGUGGCUAAGAGACUGUGGCUAGACUGCC [A24U U28A G30A] the value was 1.8; for GGCAGAGCUCAACACAGCGUGGGAAAGUGGCUAGGGCUAGACUGCC [C23G G33A U34G], 0.01; for GGCAGAGCUCAACACAGCGAGGCAAAGUAGCUGUGGCUAGACUGCA [U20A G29A C46A], 1.26. The value for GGCAGAGCUCAACACAACGUUGCAAAGUGGCUGUGGCUAGACUGAC [G17A G21U C45A] was 0.04; that for GGCAGAGCUAAACACAGCGUGGCAAAGUGGUUGUGGCAGGACUGCC [C10A C31U U38A A39G] was 0.03.

The record behind these values is the RNAGym collection of RNA variant scans (doi:10.7554/elife.90254).
